# Laboratory results taken from the supplement of paper PMC9663587.
# Tests used:
# [1] = compound: T1, C=CC(=O)Nc1ccc(C(=O)N2CCC[C@@H](Nc3ncc(SCc4ncc(C(C)(C)C)o4)s3)C2)cc1 [MFH-2-90] (max 0.1 µM); assay: GRmax, 72 h; higher = less effect;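 also: breast cell lines in 384-well plates, nine doses across a 10^4 range, Dye Drop imaging of viable cells vs DMSO and time-zero plates, GR 0 means no net growth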
# [2] = compound: T1, MFH-2-90; assay: area over the GR curve, 72 h; higher = more effect;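 also: Dye Drop or Deep Dye Drop imaging of viable cells in 384-well plates (Hoechst nuclei, LIVE/DEAD dye), nine half-log doses, GR normalized to DMSO controls and time-zero plates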
# [3] = compound: T2, C=CC(=O)Nc1ccc(C(=O)N2CCC[C@@H](Nc3ncc(SCc4ncc(C(C)(C)C)o4)s3)C2)cc1 [MFH-2-90]
# [4] = compound: T2, MFH-2-90; assay: increase in dead-cell fraction, 72 h; higher = more death;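 also: breast cancer cell lines in 384-well plates, stained with Hoechst plus LIVE/DEAD far red dye and imaged, cells above an LDR intensity threshold counted dead, Hoechst-negative corpses included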
# [5] = compound: T2, MFH-2-90; assay: GR value, 72 h; higher = faster growth (1 = untreated, <0 = killing);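 also: breast cancer and non-malignant breast epithelial lines, nine half-log doses, viable cells counted by Hoechst and LIVE/DEAD dye imaging versus time-zero plates and DMSO controls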
# 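For GR50, 72 h in this document: breast cancer and non-malignant breast epithelial cell lines, Deep Dye Drop or Dye Drop imaging, nine half-log doses, GR normalized to time-zero plates and DMSO-only controls.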
Cell Line,"GRmax, 72 h [1] [GR]",area over the GR curve [2] [GR],"GR50, 72 h [3] [µM]",also measured
MDAMB175VII,-0.317,0.201,0.0269,
MCF10A (GM),-0.259,0.7,0.000537,
PDX1328,-0.0127,0.152,0.0406,
EFM19,-0.292,0.685,0.00107,
HCC1954,-0.454,1.42,0.000255,
HCC1187,-0.865,-0.284,,
CAL851,-0.176,0.657,0.000529,
SUM159,-0.0591,0.623,0.000497,
BT549,-0.334,1.37,0.000696,
EVSAT,0.991,-0.0068,> 0.1,
HCC38,-0.373,0.792,0.000464,
MDAMB231,-0.333,1.29,,
HCC1806,-0.492,1.49,,
HCC1395,-0.535,0.869,0.000579,
CAL120,-0.0598,0.633,0.000482,
MCF12A,-0.147,0.219,0.00108,
AU565,-0.532,0.865,0.000497,increase in dead-cell fraction ([4]; 10 pM): -0.0031; increase in dead-cell fraction ([4]; 31.6 pM): 0.006; increase in dead-cell fraction ([4]; 0.0001 µM): -0.0085; increase in dead-cell fraction ([4]; 0.0003162 µM): -0.0034; increase in dead-cell fraction ([4]; 0.001 µM): 0.448; increase in dead-cell fraction ([4]; 0.003162 µM): 0.404; increase in dead-cell fraction ([4]; 0.01 µM): 0.404; increase in dead-cell fraction ([4]; 0.03162 µM): 0.431; increase in dead-cell fraction ([4]; 0.1 µM): 0.407; GR value ([5]; 10 pM): 0.94 GR; GR value ([5]; 31.6 pM): 0.852 GR; GR value ([5]; 0.0001 µM): 0.995 GR; GR value ([5]; 0.0003162 µM): 0.969 GR; GR value ([5]; 0.001 µM): -0.416 GR; GR value ([5]; 0.003162 µM): -0.433 GR; GR value ([5]; 0.01 µM): -0.469 GR; GR value ([5]; 0.03162 µM): -0.544 GR; GR value ([5]; 0.1 µM): -0.495 GR
SKBR3,-0.632,0.796,0.00047,
HCC1143,-0.301,0.721,0.000503,
MDAMB361,-0.526,0.906,0.000731,
BT20,-0.618,1.54,< 1e-05,
SUM44PE,-0.379,0.411,0.00246,
HCC1569,-0.118,0.0151,0.0372,
HCC1937,-0.208,0.705,0.000485,
PDX1206,-0.342,0.0637,0.0373,
SUM190PT,-0.492,0.439,0.00411,
HCC202,0.0812,0.209,0.0307,
HCC1419,-0.348,0.697,0.000773,

Cell Line,"GRmax, 72 h [1] [GR]",area over the GR curve [2] [GR],"GR50, 72 h [3] [µM]",also measured
BT474,-0.719,0.167,0.0388,
UACC893,-0.34,0.0611,0.0538,
SUM185PE,0.222,0.0973,0.0255,
SUM149,-0.473,0.848,0.00046,
MDAMB330,0.743,0.0453,> 0.1,
UACC812,-0.835,0.0206,0.0511,
T47D,-0.18,1.18,,
MDAMB468,-0.225,0.689,0.000606,
MCF10A,-0.508,1.55,,
HCC70,-0.934,1.91,,
HS578T,-0.273,1.21,,
MDAMB415,-0.309,0.111,0.0588,
SUM1315,-0.838,0.815,0.000486,
MDAMB453,-0.225,0.742,0.000457,
CAL51,-0.146,0.442,0.00259,
HTERT_HME1,-0.206,0.691,0.000505,
MDAMB436,-0.0612,0.573,0.000572,
MCF7,-0.312,1.35,,
SUM52PE,-0.149,0.144,0.0265,
MGH312,-0.933,1.91,,
ZR7530,-0.43,0.136,0.0398,
184A1,-0.321,0.323,0.0107,
PDXHCI002,-0.247,0.0539,0.0427,
ZR751,-0.311,0.63,0.00169,
CAMA1,-0.346,0.75,0.000602,
PDX1258,-0.584,0.158,0.0239,
SUM229PE,-0.111,0.166,0.0223,
